# Over roughly 33,000 sequences, “E-score (-0.5 to 0.5)” has its median near -0.032; the highest 2% begin near 0.36. Some of the results follow.
# Biological target: T1, Sko1 (UniProt Q02100)
# T1 sequence: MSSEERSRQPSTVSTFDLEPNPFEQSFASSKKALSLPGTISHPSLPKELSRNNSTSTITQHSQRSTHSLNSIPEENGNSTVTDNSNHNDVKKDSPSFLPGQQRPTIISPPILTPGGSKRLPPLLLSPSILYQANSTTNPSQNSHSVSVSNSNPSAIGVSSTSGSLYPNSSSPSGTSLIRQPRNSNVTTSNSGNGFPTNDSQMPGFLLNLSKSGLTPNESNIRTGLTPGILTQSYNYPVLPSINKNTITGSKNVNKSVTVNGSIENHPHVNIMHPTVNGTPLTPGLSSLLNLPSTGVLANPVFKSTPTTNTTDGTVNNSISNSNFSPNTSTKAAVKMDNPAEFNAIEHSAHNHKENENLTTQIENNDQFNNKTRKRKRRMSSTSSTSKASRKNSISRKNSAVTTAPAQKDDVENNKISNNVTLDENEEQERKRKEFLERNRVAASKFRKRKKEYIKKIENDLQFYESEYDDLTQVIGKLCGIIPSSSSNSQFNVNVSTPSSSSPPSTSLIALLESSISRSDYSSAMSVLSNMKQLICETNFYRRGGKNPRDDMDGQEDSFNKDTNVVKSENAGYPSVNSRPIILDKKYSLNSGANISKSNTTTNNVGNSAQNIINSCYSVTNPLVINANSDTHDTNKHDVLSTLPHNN
# Assay: PBM E-score (8-mer binding enrichment) (E-score (-0.5 to 0.5)); higher = stronger / more preferred TF binding; most listed sequences are background and not binding sites
# Details: protein concentration: 200 nM; construct: GST-full length
# Summary of the method: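 GST-tagged yeast TFs (full-length or DNA-binding domain) were made by PURExpress in vitro transcription/translation and applied at about 100-200 nM to universal all-10-mer Agilent arrays. The arrays were made double-stranded by primer extension, on fresh or once-stripped slides. Bound protein was detected with fluorescent anti-GST, and scans were normalised with masliner. Each ungapped eight-base word, pooled with its reverse complement, received an E-score (modified Wilcoxon-Mann-Whitney statistic) from the Universal PBM Analysis Suite.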
row,Sequence,PBM E-score
1,TTCTAGAA,-0.0322
2,ACAACTGG,-0.203
3,ACGGGTCC,-0.369
4,ATTACCAG,-0.0418
5,ACATCTCA,0.0821
6,ATAAGACG,0.115
7,ACCGCGCG,0.00662
8,TATCCTGA,0.0017
9,CGTGACTC,0.172
10,GATATCCA,0.0425
11,ATCAAAAA,0.186
12,CGTCACAC,0.437
13,CCCTCCAC,-0.136
14,CAGCAGGG,-0.269
15,AACATTAG,-0.0252
16,TACAAAAA,0.223
17,CAGACGGC,-0.301
18,GCACAGGC,-0.115
19,AGCAGGCG,-0.0967
20,CGGGCCGC,-0.242
21,GACGTTGA,0.269
22,CATTTACC,0.129
23,CGTTTCAG,0.104
24,AGCATGAG,-0.136
25,ACGTACCC,0.435

row,Sequence,PBM E-score
1,CACAGTCA,-0.095
2,AATATGTG,0.227
3,CGTCAAAG,0.331
4,CCTTATAA,0.0933
5,GTGTGGGA,-0.0912
6,CATTCATC,0.0487
7,CGAAAACG,0.188
8,TCAGCGGA,-0.234
9,CGGATGGA,-0.201
10,GCCTTATA,-0.0532
11,AATGATCT,0.201
12,AGCATACC,-0.00962
13,CCAAAAGC,-0.102
14,CAGGCATC,-0.138
15,AGGATTAT,-0.125
16,ATCGAACC,-0.0105
17,ACAACTCG,-0.0242
18,ACAGTACC,-0.194
19,GAAGTTCA,0.0026
20,AACCGCGC,-0.0849
21,AGGGCCGC,-0.217
22,ACTTTCGC,0.0343
23,AACCAGGT,-0.222
24,AGGTGGAG,-0.145
25,CGATGCGA,-0.15

row,Sequence,PBM E-score
1,CTAGCTAG,0.0391
2,GAAACAAA,0.132
3,AGACGACC,-0.195
4,GCTAGTCC,-0.2
5,AGCGACCT,-0.273
6,AATTCTCA,0.0751
7,AAAGAAAG,0.0193
8,AATAGCAT,0.158
9,AGCTCTGA,-0.0847
10,CCGGTTGA,-0.262
11,ATCGTGGC,-0.0464
12,GGGGATTA,-0.00914
13,TGCAAAAA,-0.0159
14,ATTTCTCG,0.208
15,AGGAGCGC,-0.179
16,GGCTGATA,-0.161
17,GTACGGAC,-0.0428
18,GGCTGCCC,-0.411
19,GAATTACC,0.117
20,ACGAGCGG,-0.0751
21,GCGCCAGC,-0.239
22,ATCCCGGA,-0.279
23,CAACCAGC,-0.125
24,AAATGGAT,-0.0156
25,ACAGGGGG,-0.385

row,Sequence,PBM E-score
1,CGAGTATC,-0.167
2,CCCTTTAC,0.0038
3,AAAAAGTA,0.231
4,ACTAGAGT,0.0936
5,AACAGTAA,-0.0208
6,AATCTGCG,0.00155
7,ACAGCTCT,-0.267
8,CTCTAGAG,-0.261
9,ACTGTTAA,0.101
10,AATGGATA,-0.021
11,ACGCCCGC,-0.0294
12,AACTTTCG,0.0319
13,GATGACAC,0.257
14,CAACGATG,0.0182
15,CATCGTCA,0.395
16,GTGGGCCA,0.0229
17,GTTCAGCA,0.0043
18,CCCTCTGA,-0.128
19,GTCTGTCA,-0.0302
20,AGGAAAAG,0.0334
21,ATCGAGGC,-0.122
22,ACCTGGTG,-0.272
23,AAAGGAGT,-0.161
24,CGTCAGGA,0.39
25,GACTGAAC,-0.31

row,Sequence,PBM E-score
1,GATGTACA,0.0843
2,AATCGCGG,-0.215
3,GGTCCAAC,-0.217
4,CACCTGCC,-0.0379
5,ACAGAATC,-0.0883
6,AGATGTAT,0.133
7,TATATTAA,0.278
8,ACTGCGAC,0.0239
9,ACCGCTAG,-0.199
10,AAACGAGG,-0.0296
11,TAACTCGA,0.19
12,CAGTAGCG,-0.0769
13,AACTTGTC,0.0252
14,CTAGGTAA,0.0696
15,ACACGTGA,0.415
16,ACGCATTG,0.267
17,AACGCGAT,0.0804
18,ATTAGAAT,0.183
19,CGCCAGAG,-0.296
20,CTGCAAAA,0.0796
21,ATTACAGC,-0.116
22,CAGAACCA,-0.153
23,CCGAGATC,-0.237
24,AAAAGATG,0.139
25,GATCGTAA,0.281

row,Sequence,PBM E-score
1,CCCAACTC,-0.0116
2,CAAGGTTC,-0.198
3,AAAACCTT,-0.17
4,GACAAGAA,0.121
5,CATGGGCC,-0.186
6,GACGTCGC,0.334
7,TACCAGTA,-0.0641
8,ATATCGGC,0.0222
9,CTATCCTC,-0.246
10,GGAAGTAC,-0.253
11,GTGCTGAA,-0.0793
12,ACCGACGA,0.0822
13,GTCCCGAC,-0.189
14,CATTAGGA,0.0571
15,TATTAAAA,0.233
16,GAAGACTC,-0.212
17,GGGTGGAA,-0.0996
18,GGTCGTAC,-0.239
19,ACCGCGGT,-0.281
20,AGGTAGAT,-0.0309
21,CCCTTCCG,-0.293
22,ATATATCC,0.202
23,GAGCGGCA,-0.194
24,CAAGCCCC,-0.297
25,AACCCAAA,0.0863

row,Sequence,PBM E-score
1,ACTAGCTG,-0.0107
2,CAGTGACA,0.0692
3,ATATAAAT,0.303
4,AGTTAGCG,0.113
5,CCCGCGAC,-0.23
6,CACTTAGA,0.188
7,GTAACAGA,0.173
8,CGTTACAA,0.219
9,GGAACGCA,-0.0403
10,GGACTCAA,-0.204
11,ATAACGAG,0.122
12,AGGCCCGA,-0.252
13,ATTTATCA,0.159
14,CATGTTTC,0.139
15,CTCGTAAA,0.139
16,TGATTGAA,0.0948
17,ACGAAAGA,0.202
18,ATGACGCG,0.476
19,CTCACTTA,0.00501
20,CGCCCTAG,-0.143
21,AACTGTCC,-0.334
22,CACGTGGA,0.315
23,TCGCTTAA,-0.0032
24,TTGAACAA,0.0438
25,AAAGTGTA,0.176

row,Sequence,PBM E-score
1,AGACCGTA,-0.0268
2,CCCGGCAG,-0.352
3,CAAGGATC,-0.138
4,ACCTAACG,0.129
5,ATCTAAGG,0.0499
6,ATCCGTGA,-0.0237
7,GACCTCGA,-0.126
8,ACTAGATC,-0.0827
9,ATGCGTGG,0.0146
10,GTGTTCAA,0.0463
11,GAGCCAGC,-0.274
12,ACCGAGGT,-0.25
13,CGAATAAC,0.179
14,CCCCCGAC,-0.286
15,CCTCACCG,-0.323
16,CTCTCTTA,-0.0213
17,CGAAGTTA,0.016
18,AAAGCGGC,-0.14
19,ACTTTAAA,0.101
20,AGACGTGG,0.203
21,AGTGCTCA,-0.0912
22,CGATTATA,0.0869
23,CAAGCTCA,-0.13
24,AGCGGTGG,-0.294
25,AAGTCCTC,-0.162

row,Sequence,PBM E-score
1,AATCCTGT,0.113
2,GAATTCGA,-0.136
3,CTTATGAC,0.374
4,AGCATGTA,0.162
5,GCTGAGAA,-0.241
6,CGTTATTC,0.152
7,AGTGTTCC,-0.00379
8,GGGGACCA,-0.0883
9,CCATGCAC,-0.124
10,GGTATACC,-0.122
11,CACCGAGC,-0.0943
12,ACTTTTCC,0.0503
13,TGTTGCAA,0.131
14,ATAGAGAG,-0.271
15,TATGAGCA,0.00789
16,GGGGCAAA,-0.158
17,GCCGAAGA,0.168
18,ACTGCAAC,-0.0632
19,GCCTAGCA,-0.258

# — the supplement of paper PMC3334620
